# Experimental data taken from the supplement of paper PMC8728848.
# The other results are listed elsewhere or left out.
# B1: Neuropilin-1 (Homo sapiens), O14786 (protein)
# chain: FKCMEALGMESGEIHSDQITASSQYSTNWSAERSRLNYPENGWTPGEDSYREWIQVDLGLLRFVTAVGTQGAISKETKKKYYVKTYKIDVSSNGEDWITIKEGNKPVLFQGNTNPTDVVVAVFPKPLITRFVRIKPATWETGISMRFEVYGCKITDYPCSGMLGMVSGLISDSQITSSNQGDRNWMPENIRLVTSRSGWALPPAPHSYINEWLQIDLGEEKIVRGIIIQGGKHRENKVFMRKFKIGYSNNGSDWKMIMDDSKRKAKSFEGNNNYDTPELRTFPALSTRFIRIYPERATHGGLGLRMELLGCEVE
# Experiments:
# Assay in all cases: glycan array binding signal (z-score within array); higher = stronger binding
# Conditions in all cases: glycan notation: IUPAC condensed, linker removed
# [1] = target: GlcNAc(a1-4)Gal(b1-3)GlcNAc
# Method in brief: (§1)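 Arrays were curated from the Consortium for Functional Glycomics database, 3228 in total, and kept only where the protein sequence was available. Binding is expressed as a within-array Z-score. This score was averaged across arrays of the same protein sequence at different concentrations or buffers and across linkers, and negative values can be read as non-binding.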
# [2] = target: GlcNAc(a1-4)Gal(b1-4)GalNAc
# Method in brief: as §1
# [3] = target: GlcNAc(a1-4)Gal(b1-4)GlcNAc
# Method in brief: as §1
# [4] = target: GlcNAc(a1-4)Gal(b1-4)GlcNAc(b1-3)Gal(b1-4)Glc
# Method in brief: as §1
# [5] = target: GlcNAc(a1-4)Gal(b1-4)GlcNAc(b1-3)Gal(b1-4)GlcNAc
# Method in brief: as §1
# [6] = target: GlcNAc(a1-4)Gal(b1-4)GlcNAc(b1-3)Gal(b1-4)GlcNAc(b1-3)Gal(b1-4)GlcNAc
# Method in brief: as §1
# [7] = target: GlcNAc(a1-4)Gal(b1-4)GlcNAc(b1-3)Gal(b1-4)[Fuc(a1-3)]GlcNAc(b1-3)Gal(b1-4)[Fuc(a1-3)]GlcNAc
# Method in brief: as §1
# [8] = target: GlcNAc(a1-6)Gal(b1-4)GlcNAc
# Method in brief: as §1
# [9] = target: GlcNAc(b1-2)Gal(b1-3)GalNAc
# Method in brief: as §1
# [10] = target: GlcNAc(b1-2)Man(a1-3)[GlcNAc(b1-2)Man(a1-6)]Man(b1-4)GlcNAc(b1-4)GlcNAc
# Method in brief: as §1
# [11] = target: GlcNAc(b1-2)Man(a1-3)[GlcNAc(b1-2)Man(a1-6)]Man(b1-4)GlcNAc(b1-4)[Fuc(a1-6)]GlcNAc
# Method in brief: as §1
# [12] = target: GlcNAc(b1-3)Gal
# Method in brief: as §1
# [13] = target: GlcNAc(b1-3)Gal(b1-3)GalNAc
# Method in brief: as §1
# [14] = target: GlcNAc(b1-3)Gal(b1-4)Glc
# Method in brief: as §1
# [15] = target: GlcNAc(b1-3)Gal(b1-4)GlcNAc
# Method in brief: as §1
# [16] = target: GlcNAc(b1-3)Gal(b1-4)GlcNAc(b1-3)Gal(b1-4)GlcNAc
# Method in brief: as §1
# [17] = target: GlcNAc(b1-3)GalNAc
# Method in brief: as §1
# [18] = target: GlcNAc(b1-3)Man
# Method in brief: as §1
# [19] = target: GlcNAc(b1-3)[GlcNAc(b1-4)][GlcNAc(b1-6)]GlcNAc
# Method in brief: as §1
# [20] = target: GlcNAc(b1-3)[GlcNAc(b1-6)]Gal(b1-4)GlcNAc
# Method in brief: as §1
# [21] = target: GlcNAc(b1-3)[GlcNAc(b1-6)]GalNAc
# Method in brief: as §1
# [22] = target: GlcNAc(b1-4)Gal(b1-4)GlcNAc
# Method in brief: as §1
# [23] = target: GlcNAc(b1-4)GlcNAc
# Method in brief: as §1
# [24] = target: GlcNAc(b1-4)GlcNAc(b1-4)GlcNAc
# Method in brief: as §1
# [25] = target: GlcNAc(b1-4)GlcNAc(b1-4)GlcNAc(b1-4)GlcNAc(b1-4)GlcNAc
# Method in brief: as §1
# [26] = target: GlcNAc(b1-4)GlcNAc(b1-4)GlcNAc(b1-4)GlcNAc(b1-4)GlcNAc(b1-4)GlcNAc
# Method in brief: as §1
# [27] = target: GlcNAc(b1-4)[GlcNAc(b1-6)]GalNAc
# Method in brief: as §1
# [28] = target: GlcNAc(b1-6)Gal(b1-4)GlcNAc
# Method in brief: as §1
# [29] = target: GlcNAc(b1-6)GalNAc
# Method in brief: as §1
# [30] = target: GlcNAc3Prop(b1-4)GlcNAc
# Method in brief: as §1
# [31] = target: GlcNAc6S(b1-3)Gal(b1-4)GlcNAc
# Method in brief: as §1
# [32] = target: Kdn(a2-3)Gal(b1-3)GalNAc
# Method in brief: as §1
# [33] = target: Kdn(a2-3)Gal(b1-3)GlcNAc
# Method in brief: as §1
# [34] = target: Kdn(a2-3)Gal(b1-4)Glc
# Method in brief: as §1
# [35] = target: Kdn(a2-3)Gal(b1-4)GlcNAc
# Method in brief: as §1
# [36] = target: Kdn(a2-3)Gal(b1-4)[Fuc(a1-3)]GlcNAc
# Method in brief: as §1
# [37] = target: Kdn(a2-6)Gal(b1-4)GlcNAc
# Method in brief: as §1
# [38] = target: Man(a1-2)Man(a1-2)Man(a1-3)Man
# Method in brief: as §1
binder,measurement,setting,value
B1,glycan array binding signal (z-score),[1],0.182
same,glycan array binding signal (z-score),[2],1.27
same,glycan array binding signal (z-score),[3],-0.244
same,glycan array binding signal (z-score),[4],-0.22
same,glycan array binding signal (z-score),[5],-0.004
same,glycan array binding signal (z-score),[6],-0.23
same,glycan array binding signal (z-score),[7],2.38
same,glycan array binding signal (z-score),[8],-0.248
same,glycan array binding signal (z-score),[9],-0.307
same,glycan array binding signal (z-score),[10],-0.176
same,glycan array binding signal (z-score),[11],0.048
same,glycan array binding signal (z-score),[12],-0.326
same,glycan array binding signal (z-score),[13],0.019
same,glycan array binding signal (z-score),[14],0.136
same,glycan array binding signal (z-score),[15],-0.298
same,glycan array binding signal (z-score),[16],-0.333
same,glycan array binding signal (z-score),[17],-0.296
same,glycan array binding signal (z-score),[18],-0.288
same,glycan array binding signal (z-score),[19],-0.223
same,glycan array binding signal (z-score),[20],-0.286
same,glycan array binding signal (z-score),[21],-0.265
same,glycan array binding signal (z-score),[22],-0.203
same,glycan array binding signal (z-score),[23],-0.215
same,glycan array binding signal (z-score),[24],-0.26
same,glycan array binding signal (z-score),[25],-0.269
same,glycan array binding signal (z-score),[26],-0.218
same,glycan array binding signal (z-score),[27],-0.237
same,glycan array binding signal (z-score),[28],-0.229
same,glycan array binding signal (z-score),[29],-0.297
same,glycan array binding signal (z-score),[30],-0.142
same,glycan array binding signal (z-score),[31],-0.282
same,glycan array binding signal (z-score),[32],-0.206
same,glycan array binding signal (z-score),[33],-0.21
same,glycan array binding signal (z-score),[34],-0.206
same,glycan array binding signal (z-score),[35],-0.083
same,glycan array binding signal (z-score),[36],0.116
same,glycan array binding signal (z-score),[37],-0.021
same,glycan array binding signal (z-score),[38],-0.181
